Out of some 73,000 compounds screened, about 1,800 (2.5%) were called active. The shares of active, inactive and inconclusive entries below differ from those in the screen. Calls come from the whole dose curve; as a rule, active = well fitted activation curve with a large enough effect; inconclusive = small, poorly fitted or top-dose-only effect; inactive = no such curve, though single readings can be large or run the other way. No potency is given beside an inconclusive call; the fits are too rough.
Assay: qHTS Assay for Agonists of the Thyroid Stimulating Hormone Receptor: Activators of Intracellular cAMP Concentrations in Parental HEK 293; note: nearly all actives have a fitted effect of over 55% in size; for activation: % of control where 0% means no effect
Details: parental HEK293 CNG cAMP sensor, membrane potential fluorescence; activation: at 57.1 µM (top of the series) unless noted
Summary of the method: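 Parental HEK 293 cells stably expressing a modified CNG channel (no TSHR) report cAMP rise as membrane depolarization. Membrane potential dye with 100 uM RO 20-1724 was loaded for 60 min at room temperature, then compound added for 30 min; fluorescence read at 590 nm.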
Potency is the fitted concentration of half-maximal effect; tags give direction and shape of the fitted curve.

SMILES | activation | Potency
COCCn1c(=O)c(-c2cccc(C#N)c2)nc2cnc(N3CCNCC3)nc21 | inactive: 24.6% [at 2.29 µM] | –
O=C1CC(O)(C(F)(F)F)Oc2c1ccc1ccccc21 (stereo not drawn) | – | inconclusive [activator, single point]
COC(=O)c1cc2ccsc2n1Cc1cc(=O)n2ccccc2n1 | – | inconclusive [activator, partial curve]
COc1ccc(-c2nn(-c3ccccc3)cc2/C=N/n2cnnc2)cc1OC | – | inconclusive [activator, partial curve]
c1ccc(-c2noc(-c3cccc4ccccc34)n2)nc1 | – | inactive
CCOc1ccccc1-n1nnnc1SCC(=O)Nc1cc2oc3ccccc3c2cc1OC | – | inconclusive [activator, full curve, poor fit]
CCCc1c(O)nc(SC2CC(=O)N(c3cc(OC)ccc3OC)C2=O)[nH]c1=O (stereo not drawn) | – | inconclusive [activator, single point]
COc1ccc(C)cc1NC(=O)CSc1nnc(-c2cc3cccc(OC)c3o2)n1N | – | active: 15.8 µM
COc1ccc(OC)c(S(=O)(=O)Nc2ccc(O)c3ccccc23)c1 | – | inactive
COc1cc(S(=O)(=O)N(Cc2cccs2)CC2CCCO2)ccc1-n1cnnn1 (stereo not drawn) | – | inconclusive [activator, partial curve]
COC(=O)c1ccc(-n2nnnc2SCC(=O)Nc2cc(OC)ccc2OC)cc1 | – | inconclusive [activator, single point]
CN(C)Cc1ccccc1-c1ccc2ncnc(NCc3cccs3)c2c1 | – | inactive
O=S(=O)(c1ccccc1)N1CCC2(CCCN(Cc3ccccc3)C2)CC1 | – | active: 15.8 µM
O=C(CSc1ccc2nnc(-c3cccs3)n2n1)N1CCOCC1 | – | inconclusive [activator, single point]
CCOC(=O)N1CCN(Cc2nc3c(c(=O)n(C)c(=O)n3C)n2Cc2ccccc2)CC1 | – | inconclusive [activator, single point]
Cc1ccc(-n2nnnc2SCC(=O)Nc2ccccc2N2CCCCC2)cc1C | – | active: 3.16 µM
Cn1c(SCC(=O)c2ccc3c(c2)OCO3)nnc1-c1ccccn1 | – | inconclusive [activator, single point]
CCC(C)(C)n1nnnc1C(c1cc2cc(OC)c(OC)cc2[nH]c1=O)N1CCc2ccccc21 (stereo not drawn) | – | inconclusive [activator, partial curve]
C[C@@H]1Nc2ccc(Cl)cc2S(=O)(=O)N1 | – | inactive
Cc1ccc(C)c(Cn2c(=O)n(CCC(=O)NCc3ccco3)c(=O)c3sccc32)c1 | – | inconclusive [activator, partial curve]
Cc1ccc(-n2c(C)cc(C(=O)CSc3nnnn3C)c2C)cc1 | – | inconclusive [activator, single point]
CCN(CC)CCCC(C)n1c(-c2ccccc2)nc2c(NCCO)nc(C)nc21 (stereo not drawn) | – | inactive
COCCNC(=O)C(c1ccc(C)o1)N(Cc1ccc(OC)cc1)C(=O)Cn1nnc2ccccc21 (stereo not drawn) | – | inactive
CCCCn1c(SCC(=O)N2CCC(C)CC2)nc2cc(S(N)(=O)=O)ccc21 | – | inactive
O=C(O)CC1C(=O)NCCN1CCCc1ccccc1 (stereo not drawn) | – | inconclusive [activator, single point]

SMILES | activation | Potency
CC(C#N)Sc1ncnc2sc3c(c12)CCC3 (stereo not drawn) | – | active: 25.1 µM
COc1cc(S(=O)(=O)N(Cc2ccco2)C2CCCC2)ccc1-n1cnnn1 | – | inconclusive [activator, single point]
O=C(Nc1ccc(Cl)cc1)NC1CCCC1Cc1ccco1 (stereo not drawn) | – | inconclusive [activator, partial curve]
COc1ccccc1CN1CCC2(CC1)CCN(S(C)(=O)=O)CC2 | – | inconclusive [activator, partial curve]
CC(=O)C[C@H](c1ccc([N+](=O)[O-])cc1)c1c(O)c2ccccc2oc1=O | – | inactive
COCCn1c(=O)cnc2cnc(OC)nc21 | inactive: 10.8% [at 2.29 µM] | –
Cn1cccc1C(=O)N1CCC2(CC1)CN(C(=O)Nc1cccc(F)c1)C2 | – | inactive
CC1CCCC(NC(=O)C2CCN(S(=O)(=O)N3CCOCC3)CC2)C1C (stereo not drawn) | – | inactive
O=C(Nc1ccc(NC(=O)c2ccco2)cc1)c1cnccn1 | – | inconclusive [activator, single point]
COC(=O)c1cc(-c2ccc3ccccc3c2)[nH]c(=O)c1C#N | inactive: 11.4% [at 11.4 µM] | –
CCCCOc1ccc(-c2nnn(C(C)(C)C(=O)OC)n2)cc1 | – | inconclusive [activator, single point]
C=CCn1c(SC(C)C(=O)NCc2ccc3c(c2)OCO3)nnc1C1CCCCC1 (stereo not drawn) | – | active: 2.51 µM
COc1ccc(-c2ccc(-c3noc(-c4cccs4)n3)c(OC)n2)cc1 | – | inactive
COc1ccc(C(=O)[C@H]2[C@H]3[C@@H](C(=O)[C@@H]4OC[C@H]3O4)[C@H]3C=Cc4ccccc4N32)c(OC)c1 | – | inactive
CCN(CC)S(=O)(=O)c1cc(C(=O)Nc2ccc(Cl)cn2)ccc1C | – | inconclusive [activator, partial curve]
CC(C)CNc1cc(Cl)c(S(=O)(=O)NCC(C)C)cc1C(=O)O | – | inconclusive [activator, single point]
CCN1CCCC1Cn1c(-c2ccccc2)nc2c(N3CCOCC3)nc(C)nc21 (stereo not drawn) | – | inactive
CCOC(=O)c1cnc(-n2cc(C)cn2)nc1Nc1ccccc1OC | – | inactive
COc1ccccc1Oc1ccc(S(=O)(=O)Nc2cccnc2)cc1 | – | inactive
CCC(c1nnnn1Cc1ccccc1)N(Cc1cc2cc(OC)ccc2[nH]c1=O)CC1CCCO1 (stereo not drawn) | – | inconclusive [activator, partial curve]
Cc1ccc(NC(=O)CC2SC3=NCCCN3C2=O)c(C)c1 (stereo not drawn) | – | inactive
Cc1sc2c(c1C)c(=O)n(-c1ccccc1)c1nncn21 | – | inconclusive [activator, single point]
COC(=O)N1CCC2(CC1)CCN(c1cccc(-c3ccccc3)c1)CC2 | – | inactive
COc1cccc(Cn2c(=O)c(CCc3ccccc3)nc3cnc(N(C)C)nc32)c1 | – | inconclusive [activator, full curve]
COc1ccccc1-c1nc(NCCc2cnc[nH]2)c2ccccc2n1 | – | inactive

SMILES | activation | Potency
CCOC(=O)c1cccc(NC(=O)CSc2nnc(CNc3ccc(C)cc3)n2CC)c1 | – | inconclusive [activator, single point]
CC(=O)OC[C@@H]1O[C@@H](O/N=C2/C[C@@H](O)[C@@H](O)[C@@H]3[C@@H]4C(=O)N(Cc5ccccc5)C(=O)[C@H]4CC[C@H]23)[C@H](OC(C)=O)[C@H](OC(C)=O)[C@@H]1OC(C)=O | inactive: -2.9% [at 11.4 µM] | –
Cc1nn(-c2ccccc2)c2sc(C(=O)N(CC(=O)NC(C)(C)C)Cc3ccco3)cc12 | – | active: 15.8 µM
C#CCCCC(=S)Nc1ccccc1 | – | inactive
O=c1cc(-c2ccc(O)cc2)oc2cc(O)cc(O)c12 | – | inactive
COCCCNC(=O)CCCC(=O)NCCCOC | – | inconclusive [activator, single point]
Cc1oc(-c2ccccc2F)nc1CN1CCC(C(=O)NCc2cccnc2)CC1 | – | inconclusive [activator, single point]
O=C(CCc1ccccc1)N1CCN(CCO)CC1 | – | inconclusive [activator, single point]
CN1C(=O)c2ccc(C(=O)NC3CCCCC3)cc2C1=O | – | inconclusive [activator, single point]
CCCCn1c(SCC(=O)N2CCCc3ccccc32)nc2c1c(=O)n(C)c(=O)n2C | – | inconclusive [activator, partial curve]
COc1cccc(C(=O)Cn2c(Br)nc3c2c(=O)n(C)c(=O)n3C)c1 | – | inconclusive [activator, partial curve]
CCCCC(CCC(=O)Nc1ccccc1C(=O)OCC)C(=O)O (stereo not drawn) | – | inconclusive [activator, partial curve]
COc1ccc(CNc2ncnc3ccc(-c4ccc(N(C)C)cc4)cc23)c(OC)c1 | – | inactive
O=C(CSc1nnc(-c2ccco2)n1Cc1ccccc1)c1ccc(F)cc1 | – | active: 25.1 µM
CC1=C(C(=O)OCc2ccccc2)C(c2ccc(C(C)(C)C)cc2)NC(=O)N1CCCCCC(=O)O (stereo not drawn) | – | active: 20 µM
CN1CCN(CC(=O)C23CC4CC(CC(C4)C2)C3)CC1 | – | inconclusive [activator, partial curve]
O=C(c1cc2nc(-c3ccccc3)cc(-c3ccccc3)n2n1)N1CCN(C(=O)c2ccco2)CC1 | – | inconclusive [activator, single point]
c1ccc(CNc2nc3ccccc3[nH]2)cc1 | – | inactive
O=C(Cn1nnc(-c2ccccc2)n1)Nc1ccccc1N1CCOCC1 | – | inconclusive [activator, partial curve]
COc1ccc(CCNc2oc(Cc3ccccc3)nc2C#N)cc1OC | – | inconclusive [activator, single point]
CC1(C)N=C(N)N=C(N)N1c1cccc(CSc2ccccc2)c1 | inactive: -6.06% [at 11.4 µM] | –
Cc1nc2ncnn2c(N2CCN(C(=O)c3cccc(F)c3)CC2)c1Cc1ccccc1 | – | inconclusive [activator, single point]
Cc1oc(-c2ccccc2)nc1C(=O)Nc1nccs1 | – | inconclusive [activator, single point]

— PubChem BioAssay AID938 (National Center for Advancing Translational Sciences (NCATS), 2007)
